Test results from the supplement of paper PMC4604168 (melanoma cell lines).
Some of the results follow. Single values are uncertain, as repeats are few or missing.

Assays:
Test in all cases: cell count relative to DMSO control; melanoma cells; higher = more viable cells
Conditions in all cases: library dose: standard library concentration; 72 h
G361 = system: G361
IPC-298 = system: IPC-298
IST-MEL1 = system: IST-MEL1
LB2518-MEL = system: LB2518-MEL
LOXIMVI = system: LOXIMVI
MEL-HO = system: MEL-HO
MZ2-MEL = system: MZ2-MEL
MeWo = system: MeWo
RPMI7951 = system: RPMI7951
RVH-421 = system: RVH-421
SkMel28 = system: SkMel28
SkMel2 = system: SkMel2
SkMel30 = system: SkMel30
SkMel5 = system: SkMel5
UACC257 = system: UACC257
UACC62 = system: UACC62
WM115 = system: WM115
WM1716 = system: WM1716
WM1745 = system: WM1745
WM3526 = system: WM3526
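Note: cells treated in 1,536-well plates, then fixed and DAPI-stained, with nuclei counted from automated high-throughput microscope images.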

SMILES | cell count (G361) [%] | cell count (IPC-298) [%] | cell count (IST-MEL1) [%] | cell count (LB2518-MEL) [%] | cell count (LOXIMVI) [%] | cell count (MEL-HO) [%] | cell count (MZ2-MEL) [%] | cell count (MeWo) [%] | cell count (RPMI7951) [%] | cell count (RVH-421) [%] | cell count (SkMel28) [%] | cell count (SkMel2) [%] | cell count (SkMel30) [%] | cell count (SkMel5) [%] | cell count (UACC257) [%] | cell count (UACC62) [%] | cell count (WM115) [%] | cell count (WM1716) [%] | cell count (WM1745) [%] | cell count (WM3526) [%]
C#Cc1cccc(Nc2ncnc3cc(OCCOC)c(OCCOC)cc23)c1 [erlotinib] + CCc1ccc(CCOc2ccc(CC3SC(=O)NC3=O)cc2)nc1 [pioglitazone] (first compound 4 µM, partner dose 10 µM) | 81.9 | 76.2 | 86.1 | 73.6 | 88.7 | 95.1 | 68.6 | 94.1 | 76.4 | 75.8 | 50.8 | 94.1 | 68 | 63.1 | 102 | 81.3 | 86.3 | 80.5 | 58.9 | 72.3
C#Cc1cccc(Nc2ncnc3cc(OCCOC)c(OCCOC)cc23)c1 [erlotinib] + COCC[n+]1c2c(n(Cc3cnccn3)c1C)C(=O)c1ccccc1C2=O [YM155] (first compound 4 µM, partner dose 0.002 µM) | 40 | 30.1 | 34 | 8.74 | 42.9 | 51.8 | 14.1 | 25.1 | 25.4 | 89.6 | 21.6 | 15.7 | 57.2 | 21.8 | 25.5 | 30.3 | 45.9 | 43.3 | 41.3 | 23.4
Nc1cccc2c1CN(C1CCC(=O)NC1=O)C2=O (stereo not given) [lenalidomide] + NC(=O)Nc1cc(-c2cccc(F)c2)sc1C(=O)N[C@H]1CCCNC1 [AZD7762] (first compound 5 µM, partner dose 0.1 µM) | 90 | 91.9 | 32.4 | 76.7 | 65.8 | 81.4 | 112 | 75.5 | 43 | 15.5 | 39.9 | 80.6 | 89.4 | 73 | 96.5 | 95.1 | 57.6 | 73.2 | 45.2 | 67.6
COCC[n+]1c2c(n(Cc3cnccn3)c1C)C(=O)c1ccccc1C2=O + COc1cc2ncnc(Nc3ccc(Oc4ccccc4)cc3)c2cc1OC [SrcI1] (first compound 0.002 µM, partner dose 10 µM) | 48.4 | 36 | 39.5 | 12.8 | 57.9 | 83.7 | 19 | 17.5 | 35.5 | 90.3 | 22.6 | 38.4 | 77.3 | 25.8 | 19.4 | 70.7 | 34.7 | 44.4 | 66.2 | 34.7
Clc1ccc(Nc2nnc(Cc3ccncc3)c3ccccc23)cc1 [vatalanib] + CC1(C)NC(=O)N(c2ccc([N+](=O)[O-])c(C(F)(F)F)c2)C1=O [nilutamide] (first compound 10 µM, partner dose 5 µM) | 60.2 | 78 | 64.9 | 73.6 | 66.7 | 60.9 | 71.5 | 51.6 | 61 | 87.4 | 73.8 | 71.9 | 82.2 | 65.2 | 66.4 | 89.5 | 78.6 | 88.3 | 50.4 | 74.6
COCC[n+]1c2c(n(Cc3cnccn3)c1C)C(=O)c1ccccc1C2=O + O=C(Nc1ccccc1)c1cc([N+](=O)[O-])ccc1Cl [GW9662] (first compound 0.002 µM, partner dose 10 µM) | 72.8 | 49.7 | 44.3 | 22.4 | 73.6 | 84.6 | 28.1 | 38.5 | 37.5 | 85.6 | 31.6 | 33.6 | 44.7 | 41.6 | 21.6 | 68.3 | 42.6 | 53.2 | 68.6 | 34.8
Nc1cccc2c1CN(C1CCC(=O)NC1=O)C2=O (stereo not given) [lenalidomide] + C[C@@H]1CCN(C(=O)CC#N)C[C@@H]1N(C)c1ncnc2[nH]ccc12 [CP690550] (first compound 5 µM, partner dose 5 µM) | 86.8 | 90.5 | 82.6 | 108 | 126 | 97.1 | 117 | 106 | 140 | 89.6 | 102 | 107 | 90.3 | 91.7 | 111 | 100 | 104 | 123 | 78.7 | 138
Nc1cccc2c1CN(C1CCC(=O)NC1=O)C2=O (stereo not given) [lenalidomide] + OCCn1cc(-c2cnc3nnn(Cc4ccc5ncccc5c4)c3n2)cn1 [PF04217903] (first compound 5 µM, partner dose 5 µM) | 78.3 | 95.4 | 121 | 110 | 96.8 | 115 | 114 | 82.1 | 80.7 | 113 | 145 | 96.2 | 104 | 106 | 106 | 94.2 | 102 | 102 | 66.3 | 87
C#Cc1cccc(Nc2ncnc3cc(OCCOC)c(OCCOC)cc23)c1 [erlotinib] + C=CCn1c(=O)c2cnc(Nc3ccc(N4CCN(C)CC4)cc3)nc2n1-c1cccc(C(C)(C)O)n1 [MK1775] (first compound 4 µM, partner dose 0.1 µM) | 63.2 | 53.7 | 81.7 | 45.6 | 71.5 | 77.7 | 83.9 | 68 | 52.2 | 71.4 | 41.9 | 75.3 | 63.1 | 39.7 | 85.2 | 50.9 | 51.3 | 82 | 32.2 | 72.8
